# About 120 (0.75%) of roughly 16,000 compounds were called active. About 4% were inconclusive and are not listed. Calls follow the shape of the dose curve; as a rule, active = well fitted inhibition curve with a large enough effect; inconclusive = small, poorly fitted or top-dose-only effect; inactive = no such curve, though single readings can be large or run the other way. This is one part of the list.
# Biological target: Rap guanine nucleotide exchange factor 3 (Homo sapiens) (UniProt O95398)
# UniProt O95398, sequence (O95398 whole entry, looked up): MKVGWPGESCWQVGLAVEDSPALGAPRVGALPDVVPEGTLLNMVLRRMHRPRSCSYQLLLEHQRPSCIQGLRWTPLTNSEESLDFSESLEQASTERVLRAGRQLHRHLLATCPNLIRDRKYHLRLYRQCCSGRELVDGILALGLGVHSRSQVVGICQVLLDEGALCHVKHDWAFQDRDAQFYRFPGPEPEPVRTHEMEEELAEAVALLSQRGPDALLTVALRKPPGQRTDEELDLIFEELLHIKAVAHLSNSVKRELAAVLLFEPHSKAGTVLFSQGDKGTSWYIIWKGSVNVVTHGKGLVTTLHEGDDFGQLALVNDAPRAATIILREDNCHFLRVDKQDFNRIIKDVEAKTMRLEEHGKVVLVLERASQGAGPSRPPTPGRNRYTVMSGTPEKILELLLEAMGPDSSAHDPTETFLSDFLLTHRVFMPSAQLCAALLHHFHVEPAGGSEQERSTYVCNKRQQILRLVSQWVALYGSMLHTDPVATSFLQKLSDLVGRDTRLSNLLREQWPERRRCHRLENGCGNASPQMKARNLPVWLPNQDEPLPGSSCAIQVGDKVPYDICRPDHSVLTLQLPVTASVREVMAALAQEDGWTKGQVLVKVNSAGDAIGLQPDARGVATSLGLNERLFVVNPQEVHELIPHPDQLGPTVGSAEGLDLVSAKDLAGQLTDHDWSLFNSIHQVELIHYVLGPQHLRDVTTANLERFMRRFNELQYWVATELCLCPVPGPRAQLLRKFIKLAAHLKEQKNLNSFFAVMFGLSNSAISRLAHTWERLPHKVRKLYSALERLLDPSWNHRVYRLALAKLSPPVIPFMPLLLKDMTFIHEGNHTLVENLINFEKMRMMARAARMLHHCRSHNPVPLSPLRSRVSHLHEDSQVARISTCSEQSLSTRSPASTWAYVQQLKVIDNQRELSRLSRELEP
# Assay: Validation qHTS for antagonist of cAMP-regulated guanine nucleotide exchange factor 3 (EPAC1); also: nearly all actives have a fitted effect of over 75% in size
# Conditions: EPAC1 Rap1B-BODIPY-GDP exchange, fluorescence; activity change, negative = inhibition: at the top concentration
# Method in brief: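 EPAC1 (100 nM) mixed with 250 nM RAP1B-BODIPY-GDP and 50 uM GDP; compounds in concentration series, 5 min at room temperature. Fluorescence (ex 480/em 540 nm) read every 5 min for 30 min; normalized to ATA control and DMSO.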
row,Structure (SMILES),"activity change, negative = inhibition"
1,CN(C(=O)Cc1ccccc1)[C@H](CN1CCCC1)c1ccccc1,inactive
2,CCCN1CCO[C@@H]2c3cc(O)ccc3OC[C@H]21,inactive
3,C=C1C/C(=C/C)C(=O)O[C@@H]2CCN3CC=C(COC(=O)[C@]1(C)O)[C@@H]23,inactive: 17.1%
4,COc1ccc2c(c1OC)C(=O)O[C@H]2[C@@H]1c2cc3c(cc2CCN1C)OCO3,inactive
5,CC1(C)CC/C(=C/c2ccc(Cl)cc2)C1(O)Cn1cncn1 (stereo not given),inactive: 20.9% [at 320 µM]
6,COC(=O)c1cc2c(cn1)[nH]c1ccccc12,inactive: 12.2%
7,CC(C)(C)NC[C@@H](O)COc1cccc2[nH]c(C#N)cc12,inactive: 12.4%
8,CN[C@H]1C[C@@H](N)[C@H](O)[C@@H](O[C@@H]2O[C@H](CO)[C@H](O)[C@@H]3OC4(O[C@H]23)O[C@H](C(N)CO)[C@H](O)[C@H](O)[C@H]4O)[C@@H]1O (stereo not given in full),inactive
9,COc1ccc(CCN)cc1O,inactive: 11.7%
10,CN[C@@]1(c2ccccc2Cl)CCCCC1=O,inactive: 16.2%
11,O=C(O)[C@@H]1CCN1,inactive: -6.87% [at 75.8 µM]
12,O=C(NC(O)C(Cl)(Cl)Cl)NC(O)C(Cl)(Cl)Cl (stereo not given),inactive: 6.96%
13,C[C@](N)(CCP(=O)(O)O)C(=O)O,inactive: -6.44%
14,CC(N)C(O)c1ccc(O)c(O)c1 (stereo not given),inactive
15,CC(=O)NC1CCSC1=O (stereo not given),inactive
16,CCN(CC)CCN1C(=O)CN=C(c2ccccc2F)c2cc(Cl)ccc21,inactive: 5.72%
17,C[C@]12CCC3C(CC[C@H]4C[C@@H](O)CC[C@]34C)[C@@H]1CCC2=O (stereo not given in full),inactive: 16.7%
18,Oc1ccccc1-c1ccccc1,inactive: 8.5%
19,O=CN1CC2CC(C1)c1cccc(=O)n1C2 (stereo not given),inactive: 18.2%
20,CNC(=O)Oc1ccccc1OC(C)C,inactive: 20.5%
21,CC(=O)O[C@@H]1CN2CCC1CC2,inactive: 13%
22,CN1C2CCC1CC(OC(=O)c1cc(Cl)cc(Cl)c1)C2 (stereo not given),inactive: 0.203% [at 75.8 µM]
23,O=C(O)Cc1cnc[nH]1,inactive
24,c1ccc(N2CC[C@@]3(CCCNC3)C2)nc1,inactive: 11.7%

row,Structure (SMILES),"activity change, negative = inhibition"
1,CCCN[C@@H]1CCc2c(OC)cccc2[C@@H]1C,inactive
2,c1ccc2c(c1)sc1ccccc12,inactive: 13%
3,O=P1(N(CCCl)CCCl)NCCCO1 (stereo not given),inactive
4,CNc1ccc2oc(C[C@@H]3OC4(CC[C@@H]3C)O[C@H]([C@@H](C)C(=O)c3ccc[nH]3)[C@H](C)C[C@H]4C)nc2c1C(=O)O (stereo not given in full),inactive: 2.4%
5,CCCn1c(C)c(C(=O)c2cccc3ccccc23)c2ccccc21,inactive: -4.25%
6,NC(=O)CS(=O)C(c1ccccc1)c1ccccc1 (stereo not given),inactive
7,CN1C(=O)CCS(=O)(=O)C1c1ccc(Cl)cc1 (stereo not given),inactive
8,CN(C)[C@@H]1C(=O)C(C(N)=O)=C(O)[C@@]2(O)C(=O)C3=C(O)c4c(O)cccc4[C@@](C)(O)[C@H]3[C@H](O)[C@@H]12,inactive
9,Cc1cccc(Cc2cnc[nH]2)c1C,inactive: 18%
10,CCCCC/C=C\C/C=C\C/C=C\CCCCCCC(=O)NCCO,inactive: 0.232% [at 15.3 µM]
11,CCc1cc(OC)c(C[C@@H](C)N)cc1OC,inactive: 26.2% [at 320 µM]
12,O=C1C=CC(=O)C=C1,inactive: 11.4% [at 75.8 µM]
13,CCC(=O)O[C@](Cc1ccccc1)(c1ccccc1)[C@H](C)CN(C)C,inactive: 12.9% [at 320 µM]
14,CCOP(=S)(OCC)Oc1ccc2c(C)c(Cl)c(=O)oc2c1,inactive: 8.51%
15,CCOC(=O)[C@]12Cc3cc4c(cc3[C@H]1N(Cc1ccccc1)C(=O)c1ccccc12)OCO4,inactive: -2.57%
16,C[C@@H](Cc1cccc(C(F)(F)F)c1)NCCCc1ccccc1,inactive: -12.3%
17,CC(C)[C@]1(NC(=O)[C@@H]2C=C3c4cccc5[nH]cc(c45)C[C@H]3N(C)C2)O[C@@]2(O)C3CCCN3C(=O)[C@H](Cc3ccccc3)N2C1=O (stereo not given in full),inactive: 19%
18,CCOC(=O)NC(O)C(Cl)(Cl)Cl (stereo not given),inactive: 8.68%
19,COc1ccc(C(c2ccc(OC)cc2)C(Cl)(Cl)Cl)cc1,inactive
20,O=C(Oc1ccccc1)N1CCC2(CCCN(Cc3ccccc3)C2)CC1,inactive: 7.73%
21,COC(=O)NC(=S)Nc1ccccc1NC(=S)NC(=O)OC,inactive: 18.6%
22,CCN1C[C@]2(COC)[C@H](O)C[C@H](OC)[C@]34C1C([C@H](OC)[C@H]23)[C@]1(OC(C)=O)C2[C@@H](OC(=O)c3ccccc3)C(O)(C[C@H]24)[C@@H](OC)[C@@H]1O,inactive: 14.1%
23,CCC1(CC)C(=O)NC(=O)N(C)C1=O,inactive: 22%
24,COC(C)C(O)(C(=O)OC1=CCN2CC[C@H](O)[C@H]12)C(C)C (stereo not given in full),inactive: 13.1%

row,Structure (SMILES),"activity change, negative = inhibition"
1,CCC1CN2CCC1CC2C(O)c1ccnc2ccccc12 (stereo not given),inactive: 12%
2,COc1ccccc1N1CCNCC1,inactive
3,CC1(C)S[C@H]2[C@@H](N)C(=O)N2[C@H]1C(=O)O,inactive: 15.7%
4,CC(=O)c1c(O)c(C)c(O)c(Cc2c(O)c3c(c(C(=O)/C=C/c4ccccc4)c2O)OC(C)(C)C=C3)c1O,inactive
5,CC(=O)[C@H]1CC[C@H]2[C@@H]3CC[C@H]4C[C@H](O)CC[C@]4(C)[C@H]3C(=O)C[C@]12C,inactive
6,CCOc1cc(C=O)ccc1O,inactive: -6.43%
7,C=C1C[C@@H]2[C@H](CC[C@]3(C)C(=O)CC[C@@H]23)[C@@]2(C)C=CC(=O)C=C12,inactive: 24%
8,CC1CC2CC(=O)C3CCCN4CCCC2[C@]34C1 (stereo not given in full),inactive: 15.9%
9,CNC(C)Cc1ccccc1OC (stereo not given),inactive: 31.6%
10,CC(=O)OC1C[C@@]2(C)C(c3ccoc3)C[C@H]3O[C@@]32[C@@]2(C)C(=O)C(O)=C3C(C)(C)C(=O)C=C[C@]3(C)C12 (stereo not given in full),inactive: -4.89%
11,COc1cc(C2c3cc4c(cc3C(O)C3COC(=O)C23)OCO4)cc(OC)c1O (stereo not given),inactive: 15.4%
12,O=P(O)(O)C(Cl)(Cl)P(=O)(O)O,inactive
13,C[C@]12C/C(=C/O)C(=O)C[C@@H]1CC[C@@H]1[C@@H]2CC[C@@]2(C)[C@H]1CC[C@]2(C)O,inactive: 6.7%
14,CC(C)=CCN1CC[C@]2(C)c3cc(O)ccc3C[C@H]1[C@H]2C,inactive: 18.3% [at 320 µM]
15,C[C@H]1CNCCc2ccc(Cl)cc21,inactive: 10.6%
16,O=C(O)c1cc[c]([Hg][Cl])cc1,inactive: 0% [at 75.8 µM]
17,FC(F)(F)c1cccc(N2CCNCC2)c1,inactive: -3.76%
18,CC1=NN=C(c2ccc(N)cc2)c2cc3c(cc2C1)OCO3,inactive
19,COc1cc(=O)n2c(c1C(=O)N(C)Cc1nonc1C)CCN(C(=O)C1C(C)(C)C1(C)C)CC2,inactive: -1.3%
20,CC1CC(Cl)CCC1C(=O)OC(C)(C)C (stereo not given),inactive: 11.9%
21,Cc1c(O)c(O)cc2c1CC=C1[C@]3(C)CC[C@]4(C)CC[C@@](C)(C(=O)O)CC4[C@]3(C)CC[C@]12C (stereo not given in full),inactive: 12.8%
22,NC(=O)[C@H](Cc1ccccc1)NC(=O)[C@H](Cc1c[nH]c2ccccc12)NC(=O)[C@@H]1CCCN1C(=O)[C@@H](N)Cc1ccc(O)cc1,inactive: 5.24% [at 15.3 µM]
